# About 4,000 (4.3%) of roughly 94,000 compounds were called active. The shares of active, inactive and inconclusive entries below differ from those in the screen. The call rests on the fitted dose curve; in most records, active means well fitted inhibition curve with a large enough effect; inconclusive means small, poorly fitted or top-dose-only effect; inactive means no such curve, though single readings can be large or run the other way. Where the call is inconclusive, the potency comes from a doubtful curve fit.
# Test: Cytotoxic Profiling in NIH 3T3 Cell Line of Diverse Libraries Using Quantitative High-Throughput Screening; further: nearly all actives have a fitted effect of over 55% in size
# Conditions: NIH 3T3 viability, CellTiter-Glo ATP luminescence, 48-72 h; series mostly up to 96.7 µM
# Method in brief: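 ATP-dependent luminescence (CellTiter-Glo) served as the viability signal for NIH 3T3 cells treated with compound for 48 or 72 hr at 37 °C.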
# Potency means the concentration at half of the fitted maximal effect; tags describe the fitted curve by direction and shape.
row,Compound,Potency
1,CCOC(=O)[C@H]1CN(C(=O)OCC(C)C)[C@]2(C)C(=O)N(CC3CC3)c3ccccc3[C@H]12,"inconclusive: 15.8 µM [inhibitor, partial curve]"
2,Cn1nc(-c2cccs2)cc1[C@H]1CN2CC[C@H]1C[C@@H]2CNC(=O)C1CCCCC1,"inconclusive: 112 µM [inhibitor, partial curve, poor fit]"
3,CCOC(=O)[C@H]1CN(C(=O)Nc2cccc(C#N)c2)[C@]2(C)C(=O)N(C)c3ccccc3[C@H]12,"inconclusive: 31.6 µM [inhibitor, partial curve, poor fit]"
4,OC[C@@H]1[C@H]2CN(C3CCCCCC3)CCN2C[C@H]1c1ccccc1,"inconclusive: 15.8 µM [inhibitor, partial curve, poor fit]"
5,CCOC(=O)[C@H]1CN(S(=O)(=O)Cc2ccccc2)[C@]2(C)C(=O)N(CC3CC3)c3ccccc3[C@H]12,"inconclusive: 31.6 µM [inhibitor, single point]"
6,CN(C)Cc1cn(C[C@H]2C[C@@H]3CCN2C[C@@H]3C(=O)Nc2nccs2)nn1,"inconclusive: 126 µM [inhibitor, partial curve, poor fit]"
7,Cc1nc(-c2ccc(C(F)(F)F)cc2)cc([C@H]2CN3CC[C@H]2C[C@@H]3CNC(=O)C2CC2)n1,"inconclusive: 79.4 µM [inhibitor, partial curve, poor fit]"
8,COc1cc2c(cc1OC1CCCC1)NC(=O)C21CCN(c2ccnc(C)n2)CC1,active: 79.4 µM
9,O=C(Cc1cccc(Cl)c1)N1[C@H]2CC[C@@H]1c1cnc(-c3ccccc3)nc1C2,"inconclusive: 44.7 µM [inhibitor, partial curve, poor fit]"
10,COc1ccc(-c2cccc3c2CCNC3)cc1OC,"inconclusive: 56.2 µM [inhibitor, partial curve, poor fit]"
11,CC[C@H]1CN2CC[C@H]1C[C@@H]2CNC(=O)c1ccc(C(F)(F)F)cc1,"inconclusive: 112 µM [inhibitor, partial curve, poor fit]"
12,COc1ccc(C(=O)N2[C@H]3CC[C@@H]2c2cnc(-c4ccc(F)cc4)nc2C3)c(OC)c1,"inconclusive: 11.2 µM [inhibitor, full curve, poor fit]"
13,OC[C@@H]1[C@@H](c2ccccc2)CN2CCN(Cc3ccccc3)C[C@H]12,"inconclusive: 28.2 µM [inhibitor, partial curve]"
14,COCc1cn(C[C@H]2CC3CCN2C[C@@H]3C(=O)N2CCN(c3ccccc3OC)CC2)nn1 (some centres undefined),"inconclusive: 79.4 µM [inhibitor, partial curve, poor fit]"
15,Cc1ncc2c(n1)C[C@@H]1CC[C@H]2N1C(=O)c1ccc2c(c1)OCO2,"inconclusive: 6.31 µM [inhibitor, full curve, poor fit]"
16,CC(=O)N1CCC(C(=O)N2CCC3(CC2)c2nccn2-c2ccccc2CN3C)CC1,"inconclusive: 70.8 µM [inhibitor, partial curve, poor fit]"
17,COc1ccccc1NC(=O)N1C[C@@H]2C[C@H](C1)c1ccc(-c3ccccc3C)c(=O)n1C2,"inconclusive: 100 µM [inhibitor, partial curve]"
18,Cc1ccccc1-c1ccc2n(c1=O)C[C@H]1C[C@@H]2CN(Cc2cccs2)C1,"inconclusive: 63.1 µM [inhibitor, full curve, poor fit]"
19,COc1cc2c(cc1-c1ccncc1)NC(=O)C21CCN(C(C)=O)CC1,active: 28.2 µM
20,Cc1ccccc1-c1ccc2n(c1=O)C[C@H]1C[C@@H]2CN(C(=O)c2cccs2)C1,"inconclusive: 126 µM [inhibitor, single point]"

row,Compound,Potency
1,CC(C)N1C(=O)OCC12CCN(Cc1cccnc1)C2 (centres undefined),"inconclusive: 126 µM [inhibitor, single point]"
2,CCCCOC(=O)N1C[C@H](C(=O)OCC)[C@H]2c3ccccc3N(CC3CC3)C(=O)[C@]21C,"inconclusive: 17.8 µM [inhibitor, partial curve, poor fit]"
3,COc1ccc(-c2cc([C@H]3CN4CC[C@H]3C[C@@H]4COC(=O)NC(C)C)n(C)n2)cc1,inactive
4,Cc1cc(C[C@@H]2COC[C@@H]2NC(=O)c2cn(C)c3ccccc23)on1,inactive
5,COc1ccccc1CC(=O)N1CC2(CCN(C)CC2)c2cc(OC)c(OCc3ccccc3)cc21,active: 31.6 µM
6,C=C[C@H]1CN2CC[C@H]1C[C@@H]2CNS(=O)(=O)c1ccc(Cl)cc1,"inconclusive: 126 µM [inhibitor, single point]"
7,CCOC(=O)[C@H]1CN(C(=O)OCC)[C@]2(C)C(=O)Nc3ccccc3[C@H]12,"inconclusive: 79.4 µM [inhibitor, partial curve, poor fit]"
8,CC(C)N1C[C@@H]2OCC(=O)N(Cc3ccccn3)[C@@H]2C1,"inconclusive: 126 µM [inhibitor, single point]"
9,Cn1nc(-c2ccc3ccccc3c2)cc1[C@H]1CN2CC[C@H]1C[C@@H]2CNS(=O)(=O)c1ccccc1,"inconclusive: 20 µM [inhibitor, full curve, poor fit]"
10,CCOC(=O)[C@H]1CN(C(=O)/C=C/c2ccccc2)[C@]2(C)C(=O)N(CCOC(C)=O)c3ccccc3[C@H]12,"inconclusive: 35.5 µM [inhibitor, partial curve, poor fit]"
11,Cc1ncc2c(n1)C[C@@H]1CC[C@H]2N1C(=O)Nc1ccc(C)c(C)c1,inactive
12,COc1ccc(CC(=O)N2CCN(Cc3ccccc3-c3cccnc3)CC2)cc1,"inconclusive: 35.5 µM [inhibitor, partial curve]"
13,CC[C@H]1CN2CC[C@H]1C[C@@H]2CNS(=O)(=O)c1ccc2ccccc2c1,inactive
14,N#Cc1cccc(NC(=O)NC[C@H]2C[C@@H]3CCN2C[C@@H]3CN2CCN(c3ncccn3)CC2)c1,"inconclusive: 89.1 µM [inhibitor, single point]"
15,COc1cc2c(cc1OC1CCCC1)NC(=O)C21CCN(Cc2nccs2)CC1,"inconclusive: 89.1 µM [inhibitor, single point]"
16,CC(=O)c1ccc(NC(=O)NC[C@H]2C[C@@H]3CCN2C[C@@H]3CN2CCC(C)CC2)cc1,"inconclusive: 126 µM [inhibitor, single point]"
17,Cc1cccc(CC(=O)N2CCN(Cc3ccc(=O)n(C)c3)CC2)c1,inactive
18,O=C(Nc1ccc2n(c1=O)C[C@H]1C[C@@H]2CN(C(=O)COc2ccccc2)C1)c1cccs1,"inconclusive: 50.1 µM [inhibitor, partial curve, poor fit]"
19,O=[S+]1([O-])NCC2(CCN(Cc3cccs3)C2)Oc2ncccc21 (centres undefined),inactive
20,C=C[C@H]1CN2CC[C@H]1C[C@@H]2CNCc1ccc(C(F)(F)F)cc1,"inconclusive: 79.4 µM [inhibitor, partial curve]"

row,Compound,Potency
1,CNc1ncc(C(=O)N2C[C@H]3COc4ccccc4C[C@@]3(C(=O)O)C2)cn1,inactive
2,CC(=O)N1CCC2(CC1)C(=O)NN=C2c1cccnc1,inactive
3,COc1cc2c(cc1Oc1cccc(N(C)C)c1)NC(=O)C21CCN(CCC(C)C)CC1,"inconclusive: 100 µM [inhibitor, partial curve, poor fit]"
4,COc1cc2c(cc1OC1CCCC1)NC(=O)C21CCN(c2ccc(C#N)cn2)CC1,"inconclusive: 112 µM [inhibitor, partial curve, poor fit]"
5,CCOC(=O)[C@H]1CN(C(=O)Nc2ccccc2)[C@]2(C)C(=O)N(CC3CC3)c3ccccc3[C@H]12,"inconclusive: 31.6 µM [inhibitor, partial curve, poor fit]"
6,O=C(Cc1cccc(Cl)c1)N1CCCN(CCn2nc3n(c2=O)CCCC3)CC1,inactive
7,O=C1OCC2(CCN(Cc3cccc(Cl)c3)C2)N1c1ccncc1 (centres undefined),inactive
8,O=C1NC2(CN(Cc3ccncc3)C2)Oc2ccccc21,"inconclusive: 22.4 µM [inhibitor, partial curve, poor fit]"
9,Cc1cc(NCCc2c[nH]c(=O)[nH]c2=O)n2nccc2n1,inactive
10,CCCCC1CN2CCCC2CN1 (centres undefined),inactive
11,COc1cc2c(cc1OCc1ccncc1)NC(=O)C21CCN(Cc2cccnc2)CC1,"inconclusive: 63.1 µM [inhibitor, partial curve, poor fit]"
12,O=C(NCc1ccccc1)[C@H]1CN2CC[C@H]1C[C@@H]2Cn1cc(-c2ccccn2)nn1,inactive
13,Cn1nc(C2CCCCC2)cc1[C@H]1CN2CC[C@H]1C[C@@H]2CNC(=O)COc1ccccc1,"inconclusive: 79.4 µM [inhibitor, partial curve, poor fit]"
14,CN1CCN(C(=O)Cc2c[nH]c3ncc(-c4ccc(Cl)cc4)cc23)CC1,active: 28.2 µM
15,COc1ccc(NC(=O)OC[C@H]2C[C@@H]3CCN2C[C@@H]3c2cc(C3CCCC3)nc(-c3ccncc3)n2)cc1,"inconclusive: 15.8 µM [inhibitor, full curve, poor fit]"
16,COc1cc2c(cc1Oc1cccc(N(C)C)c1)NC(=O)C21CCN(C(=O)C(C)C)CC1,"inconclusive: 100 µM [inhibitor, single point]"
17,Cn1nc(-c2cccs2)cc1[C@H]1CN2CC[C@H]1C[C@@H]2CNCc1ccccn1,"inconclusive: 50.1 µM [inhibitor, partial curve, poor fit]"
18,Cn1nc(-c2ccc3ccccc3c2)cc1[C@H]1CN2CC[C@H]1C[C@@H]2CNS(=O)(=O)c1cccs1,active: 20 µM
19,O=C(c1cncnc1)N1C[C@@H]2C[C@H](C1)c1c(-c3ccc4ccccc4c3)ccc(=O)n1C2,"inconclusive: 112 µM [inhibitor, partial curve, poor fit]"

# Source: PubChem BioAssay AID1345082 (National Center for Advancing Translational Sciences (NCATS), 2018)
